Among all 39,000 compounds or so, about 220 (0.56%) showed activity. This is one part of the list.
The compounds below were run on Escherichia coli K-12 BW25113 (assay: relative growth (OD600 normalised to plate interquartile mean) (fraction); higher = less growth inhibition, active = 0.2 or less). Settings: 50 µM; LB; incubation time: overnight (16-24 h).
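Further: static incubation at 37 °C against the wild-type strain, values averaged over two biological replicates.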

| Compound | relative growth |
| --- | --- |
| C[C@@H]1CCCCO[C@@H](CN(C)C(=O)Nc2ccc(C(F)(F)F)cc2)[C@@H](C)CN([C@H](C)CO)C(=O)c2cc(NC(=O)CCCCCC(=O)Nc3ccccc3N)ccc2O1 | inactive: 0.988 |
| COc1ccc(CN(C)C[C@@H]2Oc3ccc(NC(=O)Nc4cccc5ccccc45)cc3CC(=O)N([C@H](C)CO)C[C@@H]2C)cc1 | inactive: 0.98 |
| C[C@@H]1CN([C@H](C)CO)C(=O)c2cc(NS(=O)(=O)c3ccc(F)cc3)ccc2O[C@@H](C)CCCCO[C@@H]1CN(C)C(=O)NC1CCCCC1 | inactive: 1.03 |
| Cc1noc(C)c1NC(=O)N(C)C[C@@H]1Oc2c(NC(=O)Nc3cccc4ccccc34)cccc2C(=O)N([C@@H](C)CO)C[C@@H]1C | inactive: 0.912 |
| Cc1ccc(S(=O)(=O)N(C)C[C@@H]2Oc3ncc(Br)cc3C(=O)N([C@@H](C)CO)C[C@H]2C)cc1 | inactive: 0.991 |
| C[C@@H]1CN([C@@H](C)CO)C(=O)c2cc(NS(=O)(=O)c3ccc(Cl)cc3)ccc2O[C@H]1CN(C)C(=O)Nc1cccc2ccccc12 | inactive: 1 |
| CO[C@@H]1CN(C)C(=O)c2cc(NS(=O)(=O)c3cn(C)cn3)ccc2OC[C@@H](C)N(CCC(F)(F)F)C[C@@H]1C | inactive: 0.987 |
| C[C@@H]1CCCCO[C@@H](CN(C)Cc2ccc(Cl)c(Cl)c2)[C@H](C)CN([C@@H](C)CO)C(=O)c2cc(NC(=O)c3ccccc3)ccc2O1 | inactive: 1 |
| COCC#Cc1ccc2c(c1)O[C@H](CN(C)C(=O)c1ccccc1)[C@H](C)CN([C@H](C)CO)S2(=O)=O | inactive: 0.979 |
| C[C@@H]1CN([C@@H](C)CO)C(=O)c2cccc(NC(=O)c3cnccn3)c2O[C@@H]1CN(C)S(=O)(=O)c1cccs1 | inactive: 0.972 |
| C[C@H]1CN([C@@H](C)CO)C(=O)Cc2cc(NS(=O)(=O)c3ccc(Cl)cc3)ccc2O[C@H]1CN(C)Cc1ccc(C(F)(F)F)cc1 | inactive: 1.04 |
| C[C@@H]1CN([C@@H](C)CO)C(=O)c2cc(NC(=O)Cn3cnnn3)ccc2O[C@@H]1CN(C)C(=O)Nc1ccc(C(F)(F)F)cc1 | inactive: 0.963 |
| C[C@@H]1CCCCO[C@@H](CN(C)Cc2ccc3c(c2)OCO3)[C@H](C)CN([C@@H](C)CO)C(=O)c2cc(NC(=O)c3ccccc3)ccc2O1 | inactive: 1.01 |
| Cn1cnc(S(=O)(=O)N2C[C@H](O)COC[C@H]3O[C@@H](CC(=O)NC4CCC4)CC[C@@H]32)c1 | inactive: 1 |
| Cc1noc(C)c1NC(=O)Nc1ccc2c(c1)C(=O)N([C@H](C)CO)C[C@H](C)[C@H](CN(C)Cc1ccc(C(=O)Nc3ccccc3N)cc1)O2 | inactive: 1.01 |
| CNC(=O)CN1CCO[C@H]2CN(C(=O)COC)C[C@@H]21 | inactive: 1 |
| Cc1ccc(S(=O)(=O)Nc2cccc3c2O[C@@H](CN(C)CC2CC2)[C@H](C)CN([C@H](C)CO)C3=O)cc1 | inactive: 1.01 |
| C[C@@H]1CN([C@@H](C)CO)C(=O)c2cccc(NC(=O)CCCCCC(=O)Nc3ccccc3N)c2O[C@@H]1CN(C)C(=O)Nc1ccc(C(F)(F)F)cc1 | inactive: 0.953 |
| C[C@H]1CN([C@@H](C)CO)C(=O)c2cccc(NC(=O)C3CCCCC3)c2O[C@@H]1CN(C)Cc1ccc(C(=O)Nc2ccccc2N)cc1 | inactive: 1.01 |
| COc1cc(C)c(C=CC=CC=CC=CC(=O)O)c(C)c1C | inactive: 0.797 |

| Compound | relative growth |
| --- | --- |
| CC(C)Cc1ccc(CN2CC[C@@H](N)C2)cc1 | inactive: 0.906 |
| C[C@@H]1CCCCO[C@H](CN(C)Cc2ccc(C(F)(F)F)cc2)[C@@H](C)CN([C@@H](C)CO)C(=O)c2cc(NS(=O)(=O)c3ccc(Cl)cc3)ccc2O1 | inactive: 1.11 |
| C[C@@H]1CN([C@H](C)CO)C(=O)c2cccc(NS(=O)(=O)c3ccc(Cl)cc3)c2O[C@@H]1CN(C)S(=O)(=O)c1cn(C)cn1 | inactive: 0.984 |
| COc1ccc(S(=O)(=O)Nc2ccc3c(c2)C(=O)N([C@H](C)CO)C[C@@H](C)[C@H](CN(C)Cc2ccc(C(F)(F)F)cc2)OCCCC[C@H](C)O3)cc1 | inactive: 1.07 |
| C[C@@H]1CN([C@H](C)CO)C(=O)c2cc(C#CC3(O)CCCC3)cnc2O[C@@H]1CN(C)S(=O)(=O)c1ccc(F)cc1 | inactive: 0.925 |
| C[C@@H]1CN([C@H](C)CO)C(=O)Cc2cc(NC(=O)Nc3ccc4c(c3)OCO4)ccc2O[C@H]1CN(C)Cc1ccc(C(=O)Nc2ccccc2N)cc1 | inactive: 1.01 |
| O=C(Cc1ccncc1)Nc1ccc2c(c1)[C@@H]1C[C@@H](CC(=O)N3CCc4ccccc4C3)O[C@@H](CO)[C@@H]1O2 | inactive: 0.989 |
| CNC[C@H]1OCCCC[C@H](C)Oc2ccc(NS(=O)(=O)c3cn(C)cn3)cc2C(=O)N([C@H](C)CO)C[C@@H]1C | inactive: 0.972 |
| NC[C@@H]1CC(=O)N(c2ccccc2)C1 | inactive: 1.02 |
| C[C@@H]1CN([C@H](C)CO)C(=O)c2c(c3ccccc3n2C)-c2ccccc2CO[C@@H]1CN(C)Cc1ccc(C(=O)O)cc1 | inactive: 0.997 |
| Cc1noc(C)c1S(=O)(=O)Nc1ccc2c(c1)C(=O)N([C@@H](C)CO)C[C@@H](C)[C@@H](CN(C)S(=O)(=O)c1cn(C)cn1)OCCCC[C@@H](C)O2 | inactive: 0.989 |
| C[C@@H]1CN([C@H](C)CO)C(=O)Cc2cc(NC(=O)Cn3cnnn3)ccc2O[C@H]1CN(C)C(=O)Nc1ccccc1 | inactive: 1.01 |
| COc1ccc([C@@H]([C@H](Cc2ccccc2)OC(C)=O)N2C[C@@H]3C(=NO[C@@H]3[C@@H](O)c3ccccc3)[C@@H]2Cc2ccccc2)cc1 | inactive: 1.01 |
| O=C(O[C@@H]1Cc2c(O)cc(O)cc2O[C@@H]1c1cc(O)c(O)c(O)c1-c1c([C@H]2Oc3cc(O)cc(O)c3C[C@H]2O)cc(O)c(O)c1O)c1cc(O)c(O)c(O)c1 | inactive: 1 |
| CCNC(=O)C[C@@H]1CC[C@@H]2[C@H](COc3ccc(NS(=O)(=O)c4ccccc4C)cc3C(=O)N2C)O1 | inactive: 1 |
| COc1ccccc1C#Cc1ccc2c(c1)O[C@H](CN(C)Cc1cccnc1)[C@H](C)CN([C@@H](C)CO)S2(=O)=O | inactive: 1.03 |
| COc1ccc2c3c(n(c2c1)C)[C@@H](CO)N(C[C@]13CN(C1)S(=O)(=O)c1ccc(cc1)C)S(=O)(=O)c1ccc(cc1)C | inactive: 1.03 |
| C[C@@H]1CCCCO[C@@H](CN(C)S(=O)(=O)c2ccc(Cl)cc2)[C@@H](C)CN([C@@H](C)CO)C(=O)c2cc(NC(=O)Nc3ccc(C(F)(F)F)cc3)ccc2O1 | inactive: 0.985 |
| COCC#Cc1cnc2c(c1)C(=O)N([C@H](C)CO)C[C@@H](C)[C@@H](CN(C)C(=O)c1cnccn1)O2 | inactive: 0.97 |
| Cc1noc(C)c1NC(=O)Nc1ccc2c(c1)C(=O)N([C@H](C)CO)C[C@@H](C)[C@H](CN(C)Cc1ccc3c(c1)OCO3)OCCCC[C@H](C)O2 | inactive: 1 |

| Compound | relative growth |
| --- | --- |
| C[C@H]1CN([C@@H](C)CO)C(=O)c2cccc(NC(=O)Nc3cccc4ccccc34)c2O[C@H]1CN(C)Cc1ccccc1 | inactive: 1 |
| C[C@@H]1CCCCO[C@@H](CN(C)S(=O)(=O)c2cccs2)[C@H](C)CN([C@H](C)CO)C(=O)c2cc(NS(=O)(=O)c3ccc(Cl)cc3)ccc2O1 | inactive: 1.03 |
| C[C@H](CO)N1C[C@H](C)[C@@H](CN(C)Cc2ccncc2)Oc2cc(C#CC(C)(C)O)ccc2S1(=O)=O | inactive: 0.991 |
| NC1=NNC(=O)C1 | inactive: 0.99 |
| COc1ccc2c3c(n(c2c1)C)[C@H](CO)N(C[C@]13CCN(CC1)C(=O)c1ccccc1F)C(=O)Nc1ccc(cc1)F | inactive: 1.06 |
| COC(=O)[C@H](Cc1ccc(-n2cc(-c3ccc(C(=O)NO)s3)nn2)cc1)N1CC2=C[C@H]([C@@H](O)Cc3ccccc3)n3c(=O)n(C)c(=O)n3[C@@H]2[C@@H](C2CC2)O1 | inactive: 1 |
| CCN1C[C@]23CN(C(=O)c4cnccn4)C[C@@H](C[C@H]2S1(=O)=O)O3 | inactive: 0.985 |
| Cl.OC(CCN1CCCC1)(c1ccccc1)C1CCCCC1 (stereo not drawn) | inactive: 0.931 |
| CCC(=O)N[C@@H]1C=C[C@H](CC(=O)OC)O[C@@H]1CO | inactive: 1.02 |
| C[C@@H]1CN([C@H](C)CO)C(=O)Cc2cc(NC(=O)CCN3CCOCC3)ccc2O[C@@H]1CN(C)S(=O)(=O)c1cccs1 | inactive: 0.987 |
| C=C(C)[C@@H]1CC[C@]2(COC(C)=O)CC[C@]3(C)[C@H](CC[C@@H]4[C@@]5(C)CC[C@H](OC(C)=O)C(C)(C)[C@@H]5CC[C@]43C)[C@@H]12 | inactive: 0.942 |
| C=CCSc1n[nH]c(=O)[nH]c1=O | inactive: 0.915 |
| Cn1c[n+](NC(=O)c2ccc(C(=O)ON3C(=O)CCC3=O)cc2)cn1 | inactive: 1.03 |
| C[C@@H]1CCCCO[C@H](CN(C)Cc2ccc(C(F)(F)F)cc2)[C@@H](C)CN([C@@H](C)CO)C(=O)c2cc(NC(=O)Nc3ccc(F)cc3)ccc2O1 | inactive: 1.01 |
| C[C@@H]1CCCCO[C@H](CN(C)C(=O)Nc2ccc3c(c2)OCO3)[C@H](C)CN([C@@H](C)CO)C(=O)c2cc(NC(=O)CCC(F)(F)F)ccc2O1 | inactive: 0.977 |
| CCCCC(CC)COc1ccc(-c2nc(-c3ccc(OC)cc3)nc(-c3ccc(OCC(CC)CCCC)cc3O)n2)c(O)c1 (stereo not drawn) | inactive: 1.17 |
| C[C@@H]1CN([C@H](C)CO)C(=O)c2cc(NC(=O)Nc3ccc4c(c3)OCO4)ccc2O[C@@H](C)CCCCO[C@@H]1CN(C)S(=O)(=O)c1cccs1 | inactive: 1.04 |
| C[C@H]1CCN=C(N)S1 | inactive: 0.969 |

Source: the supplement of paper PMC9446081
